Measurements from PubChem BioAssay AID1030 (National Center for Advancing Translational Sciences (NCATS), 2008).
Out of some 220,000 compounds screened, about 16,000 (7.3%) were called active. This list was built around the results that the source calls inconclusive (neither active nor inactive); the mix of calls is not that of the screen. Calls come from the whole dose curve; as a rule, active = well fitted inhibition curve with a large enough effect (not every such curve was filed as active); inconclusive = small, poorly fitted or top-dose-only effect, or another doubt; inactive = no such curve, though single readings can be large or run the other way. Potencies of inconclusive entries are doubtful fits and often do not repeat.

molecular target: Aldehyde dehydrogenase 1A1 (Homo sapiens) (UniProt P00352); experiment: qHTS Assay for Inhibitors of Aldehyde Dehydrogenase 1 (ALDH1A1); conditions: Purified ALDH1A1, NADH fluorescence, propionaldehyde substrate; series mostly up to 75.3 µM; activity, negative = inhibition: at the top concentration;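 for activity, negative = inhibition: plate controls were no enzyme wells and a reference inhibitor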
UniProt P00352, sequence (P00352 whole entry, looked up): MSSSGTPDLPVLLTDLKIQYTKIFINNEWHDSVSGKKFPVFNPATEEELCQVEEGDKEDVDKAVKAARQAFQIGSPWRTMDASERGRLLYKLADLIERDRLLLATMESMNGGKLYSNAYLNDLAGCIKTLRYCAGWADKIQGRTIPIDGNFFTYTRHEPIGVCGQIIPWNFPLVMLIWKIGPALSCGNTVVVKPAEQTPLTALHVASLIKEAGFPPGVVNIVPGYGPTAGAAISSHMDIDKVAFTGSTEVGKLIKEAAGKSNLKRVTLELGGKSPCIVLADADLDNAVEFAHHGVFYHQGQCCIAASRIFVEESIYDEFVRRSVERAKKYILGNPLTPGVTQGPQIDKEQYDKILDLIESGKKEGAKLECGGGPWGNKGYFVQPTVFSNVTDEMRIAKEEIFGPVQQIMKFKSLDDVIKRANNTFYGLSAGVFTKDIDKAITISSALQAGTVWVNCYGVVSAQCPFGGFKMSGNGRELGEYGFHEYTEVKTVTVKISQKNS
Potency is the fitted concentration of half-maximal effect; tags give direction and shape of the fitted curve.

Potency, active:
COc1ccc(C(=O)/C=C/c2ccccc2)cc1 17.8 µM
COCCNC(=S)Nc1ccc(N2CCCCC2)cc1 8.91 µM
COc1cc(S(=O)(=O)N2CCCCC2)ccc1NC(=O)c1ccccc1Cl 2 µM
O=C(NC1CCCCC1)c1cc([N+](=O)[O-])ccc1N1CCCCC1 12.6 µM
CCc1nnc(NS(=O)(=O)c2ccc(NC(=S)NC(=O)/C=C/c3ccc(OC)cc3)cc2)s1 2.51 µM
CCOC(=O)N1CCC(NC(=O)C2CCN(C(=O)N3CC(C)Oc4ccc(C)cc43)CC2)CC1 (stereo unspecified) 7.94 µM
CN(C)c1ccc(N=Cc2ccco2)cc1 5.01 µM
CCc1ccc(C(=O)NC(=S)Nc2ccc3c(c2)OCCO3)cc1 17.8 µM
CCN(CC)COC(=S)S 2.82 µM
O=C(CSc1nc2ccccc2c(=O)n1Cc1ccco1)c1ccc(F)cc1 11.2 µM
Cc1ccc(CNC(=O)CCS(=O)(=O)c2ccc(Br)s2)o1 22.4 µM

Potency, inconclusive:
Cc1ccccc1-c1nc2cc(Cl)ccc2o1 39.8 µM [inhibitor, single point]
COc1ccc(-c2nn(-c3ccccc3)cc2CNCc2cccnc2)c(F)c1 25.1 µM [inhibitor, single point]
Cc1ccc(-c2onc3ccc(C=O)cc23)cc1 14.1 µM [inhibitor, partial curve]
CC(C)Cc1nc(N2CCOCC2)c(C#N)c2c1CCC2 31.6 µM [inhibitor, partial curve]
Cc1ccc2cc(CN(Cc3cccs3)C(=O)c3ccco3)c3nnnn3c2c1C 0.891 µM [inhibitor, full curve]
O=C(CCCn1cc([N+](=O)[O-])cn1)N1CCCCC1 39.8 µM [inhibitor, single point]
COc1ccc(-c2nc3cnc(Oc4cccc(Cl)c4)nc3n(CCC#N)c2=O)cc1 28.2 µM [inhibitor, partial curve, poor fit]
CCOc1cc(/C=C2/NC(=O)N(CC(=O)Nc3cccc(C)c3)C2=O)ccc1OCC(N)=O 35.5 µM [inhibitor, single point]
COc1cccc(-c2nnc(-c3ccc(C)o3)o2)c1 25.1 µM [inhibitor, partial curve]
O=C(O)CC/C(=N\NC(=O)c1ccc(F)cc1)c1ccc(Br)cc1 31.6 µM [inhibitor, single point]
CC(C)CNc1nc(N)c([N+](=O)[O-])c(NCC2CCCO2)n1 (stereo unspecified) 22.4 µM [inhibitor, partial curve]
Cc1nnsc1-c1nnc(SCC(=O)c2ccccc2)n1C1CC1 25.1 µM [inhibitor, single point]
CCc1c(C)[nH]n(-c2ccc(Oc3ccccc3)c(S(=O)(=O)O)c2)c1=O 39.8 µM [inhibitor, single point]
Cc1noc(C)c1-c1nc(NCc2ccccc2)c2ccccc2n1 35.5 µM [inhibitor, single point]
Cc1ccc(NCc2nnc(SCC(=O)N(Cc3ccccc3)C(C)(C)C)o2)c(C)c1 31.6 µM [inhibitor, single point]
O=C(NCc1ccco1)c1c(F)c(F)c(F)c(C(=O)NCc2ccco2)c1F 39.8 µM [inhibitor, single point]
Cn1c(=O)c2c(nc(NN=C3CCCCC3)n2C)n(C)c1=O 39.8 µM [inhibitor, single point]
CCOC(=O)N1CCN(CC(O)c2ccccc2)CC1 (stereo unspecified) 25.1 µM [inhibitor, single point]
O=C(NC1CCCC1)C(c1cccs1)N(C(=O)c1ccco1)c1ccc2c(c1)OCCO2 (stereo unspecified) 22.4 µM [inhibitor, single point]
COc1ccc(-c2nc(C#N)c(N3CC(C)OC(C)C3)o2)cc1OC (stereo unspecified) 28.2 µM [inhibitor, partial curve]
CCCCCCCN1C2=NCCCN2c2ccccc21 7.08 µM [inhibitor, single point]
CCOC(=O)C1CCCN(C(=O)c2ccc(Cn3c(=S)[nH]c4cc(C(=O)OC)ccc4c3=O)cc2)C1 (stereo unspecified) 4.47 µM [inhibitor, full curve]
CN(C)S(=O)(=O)c1cccc(NC(=O)CNC2CCCCC2)c1 20 µM [inhibitor, partial curve]
CC1CCCc2sc3nc(NCc4ccco4)n4ncnc4c3c21 (stereo unspecified) 39.8 µM [inhibitor, single point]
Cc1sc2c(c1C)c(=O)nc1n2Cc2ccccc2-1 15.8 µM [inhibitor, partial curve]
Cc1ccccc1-n1c(C)cc(/C=N/Nc2ccc([N+](=O)[O-])cn2)c1C 39.8 µM [inhibitor, single point]
O=C(COC(=O)c1cc([N+](=O)[O-])ccc1NCCO)c1ccc(Cl)cc1 22.4 µM [inhibitor, partial curve]
O=c1c(-c2ccc(F)cc2)nc2cnc(N3CCOCC3)nc2n1Cc1cccs1 8.91 µM [inhibitor, partial curve, poor fit]
Cc1c(C)c2ccc(OCC(=O)N(C)C)c(C)c2oc1=O 31.6 µM [inhibitor, partial curve]
O=C(CSCCO)Nc1cccc2ccccc12 44.7 µM [inhibitor, single point]
COc1cc(S(=O)(=O)NCCc2ccc3c(c2)OCO3)ccc1-n1cnnn1 39.8 µM [inhibitor, single point]
FC(F)(F)c1ccccc1-c1nc(Nc2ccncc2)c2ccccc2n1 35.5 µM [inhibitor, single point]
CCNC(=S)NNC(=O)c1cc(-c2cccc(C)c2)nc2ccccc12 39.8 µM [inhibitor, single point]
C=CCn1nc(-c2ccccc2)c(N2CCCCC2)cc1=O 25.1 µM [inhibitor, single point]
Cc1[nH]n(-c2ccccc2)c(=O)c1/C=N/NC(=O)c1ccoc1C 39.8 µM [inhibitor, single point]
CCOC(=O)c1c(NC(=O)c2c(Br)cnn2CC)sc(C)c1C 39.8 µM [inhibitor, single point]
COC(=O)C1CCN(C(=O)c2ccc(OC3CCN(Cc4ccccn4)CC3)cc2)CC1 39.8 µM [inhibitor, single point]
O=C(CCCCCn1c(=O)[nH]c2ccsc2c1=O)N1CCN(C2CCCCC2)CC1 28.2 µM [inhibitor, single point]
c1ccc(Nc2ncncc2-c2ccoc2)cc1 35.5 µM [inhibitor, single point]
S=c1[nH]cc(-c2ccc(Cl)cc2)n1-c1ccccc1 0.316 µM [inhibitor, full curve]
O=C1Nc2cc3c(cc2C1=O)sc1ccccc13 25.1 µM [inhibitor, partial curve]
C/C(=C\C(=O)c1ncc(C(F)(F)F)cc1Cl)N(C)C 39.8 µM [inhibitor, single point]
Cc1ccc(NC(=O)c2ocnc2C)cc1Cl 31.6 µM [inhibitor, single point]
COc1ccc2c(c1OC)C(=O)N(c1nccs1)C2 28.2 µM [inhibitor, partial curve]

activity, negative = inhibition, inactive:
Fc1ccc(CSc2ncnc3scc(-c4ccccc4)c23)cc1 -1.81%
O=C(c1ccc(C23CC4CC(CC(C4)C2)C3)o1)N1CCOCC1 -6.94%
Cc1ccc(NC(=O)CCC(=O)NNC(=O)c2ccco2)cc1C 23.9%
Cc1ccc(C(=O)NCCNC(=O)c2ccccc2)cc1 2.28%
Cc1ccc(C(=O)OCC(=O)NCc2ccco2)s1 -12.2%
CCc1nc(SCC(=O)N2CCC(Cc3ccccc3)CC2)c2c(=O)n(C)c(=O)n(C)c2n1 0.902%
Cc1nc(Cl)c(C(=O)NC(C)(C)C)c(C)c1Cl 6.92%
CCOC(=O)c1cc(C(C)=O)c(=O)[nH]c1C -0.0576%
NC(=O)CS(=O)C[C@H](N)C(=O)O (stereo partly specified) -2.57% [at 13.5 µM]
CCN1CCN(C(=O)Nc2ccccc2OC)CC1 0.136%
Cc1c(N=Nc2ccc(N(C)C)cc2)c(=O)n(-c2ccccc2)n1C -13.2%
O=C(O)CCSc1nnc(COc2cccc3ccccc23)n1-c1cccc(Cl)c1 2.56%
O=C1CN(S(=O)(=O)c2cc(Cl)ccc2Cl)CCN1 0.639%
O=C(COc1ccccc1Cl)N(Cc1ccco1)C1CCS(=O)(=O)C1 (stereo unspecified) 23.9%
CCOC(=O)CSc1nc2ccc(NC(C)=O)cc2s1 6.32%
CC(=O)c1ccc(OCC(O)CN2CCN(CCO)CC2)cc1 (stereo unspecified) -7.45%
O=c1c(-c2cccc(Cl)c2)nc2cncnc2n1C1CC1 13.6%
O=C(O)c1ccc(/C=N/NC(=S)NCCN2CCOCC2)cc1 -4.79%
COc1ccc(C)cc1NC(=O)CSc1nnc(COc2ccccc2)n1Cc1ccco1 -11.9%
CCC(C)(C(=O)NC1CCCC1)N(Cc1cccs1)C(=O)c1ccc2c(c1)OCO2 (stereo unspecified) -8.79%
CCOC(=O)N1CCC(NC(=O)C(NS(=O)(=O)c2ccc3c(c2)CCN3C(=O)CC)C(C)C)CC1 (stereo unspecified) -1.13%
